According to PubChem BioAssay AID1159614 (National Center for Advancing Translational Sciences (NCATS), 2016):
Hit rate of the full screen: of about 45,000 compounds, about 65 (0.1%) were called active. The call rests on the fitted dose curve; in most records, active means well fitted activation curve with a large enough effect; inconclusive means small, poorly fitted or top-dose-only effect; inactive means no such curve, though single readings can be large or run the other way. The list shows a part of the results.

These compounds were tested against Galactocerebrosidase (Homo sapiens) (UniProt P54803) (assay: A Novel Cell-Based Assay to Identify Small Molecules for B -Galactocerebrosidase). Settings: 145M-Twi-hGALC-G270D cells (Twitcher mouse brain line with human GALC G270D), HMU-beta-Gal fluorescence, 48 h; series mostly up to 57.5 µM; activation: at the top concentration.
Sequence of UniProt P54803 (P54803 whole entry, looked up): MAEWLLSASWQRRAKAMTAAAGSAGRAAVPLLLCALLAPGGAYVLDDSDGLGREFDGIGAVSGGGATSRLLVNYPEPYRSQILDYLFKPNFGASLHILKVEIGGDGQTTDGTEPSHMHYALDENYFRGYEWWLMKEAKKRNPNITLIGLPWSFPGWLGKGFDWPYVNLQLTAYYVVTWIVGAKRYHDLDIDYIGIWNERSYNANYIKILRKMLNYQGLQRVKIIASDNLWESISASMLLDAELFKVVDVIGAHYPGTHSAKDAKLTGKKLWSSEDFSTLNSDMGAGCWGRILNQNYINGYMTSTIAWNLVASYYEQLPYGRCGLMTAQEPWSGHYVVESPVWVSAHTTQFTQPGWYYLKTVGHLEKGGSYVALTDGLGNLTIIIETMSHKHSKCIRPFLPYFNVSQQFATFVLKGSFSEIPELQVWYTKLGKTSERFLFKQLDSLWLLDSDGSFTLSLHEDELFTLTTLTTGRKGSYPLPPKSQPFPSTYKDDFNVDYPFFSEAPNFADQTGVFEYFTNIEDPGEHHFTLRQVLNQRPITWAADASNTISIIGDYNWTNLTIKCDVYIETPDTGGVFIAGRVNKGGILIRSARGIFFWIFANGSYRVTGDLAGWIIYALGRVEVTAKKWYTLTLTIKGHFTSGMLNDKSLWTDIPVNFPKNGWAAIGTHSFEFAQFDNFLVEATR
Summary of the method: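 Mutant human GALC (G270D), stably expressed in a Twitcher mouse brain cell line lacking endogenous GALC, is measured in live-treated cells via 6-hexadecanoylamino-4-methylumbelliferyl-β-galactoside hydrolysis (0.1 mM final, pH 5.2) with fluorescent detection.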
Further: 0% is about no effect; nearly all actives have a fitted effect of over 65% in size.

activation, inactive:
CN1CCC(=C2c3ccccc3CCc3sccc32)CC1 -16.5%
CC(NC(=O)C1CCN(S(=O)(=O)c2ccc(F)cc2)CC1)c1ccccc1 (stereo unspecified) -5.06%
CN(C)CCNC(=O)C1CCN(c2ncnc3c2nc2n3CCCCC2)CC1 11.2%
O=C(Cn1ncc2c3ccccc3n(Cc3ccc(Cl)cc3)c2c1=O)NCCC1=CCCCC1 -14%
O=C1CSC2(C(=O)N(Cc3ccccc3F)c3ccccc32)N1c1cccc(C(F)(F)F)c1 (stereo unspecified) -41.6%
CC(C)Oc1ccc(C(=O)N2CCC(c3nc4ccccc4o3)CC2)cc1 -8.78%
COc1ccc(-c2cc(C(=O)Oc3ccc(C)cc3)c3ccccc3n2)cc1 -16.5%
Cc1ccc(NS(=O)(=O)c2ccc(-c3cnc(C4CC4)o3)cc2)cc1N(C)C -1.61%
COc1cc(NC(=O)CSc2ncc3c(n2)-c2ccc(Cl)cc2N(Cc2ccccc2)S3(=O)=O)cc(OC)c1 -11.3%
CC(=O)Nc1ccc(NC(=O)CSc2nccn2Cc2ccc3c(c2)OCO3)cc1 -16.4%
CC(C)c1ccc(NC(=O)CSC2=Nc3ccccc3C3=NC(CC(=O)NCc4cccs4)C(=O)N23)cc1 (stereo unspecified) -11.6%
Cc1nc(-c2cccc(F)c2)sc1CCNC(=O)c1c(F)cccc1Cl -14.4%
CCc1ccc(C(=O)COC(=O)C(Cc2c[nH]c3ccccc23)NC(=O)c2ccc(CC)cc2)cc1 (stereo unspecified) -8.6%
COc1ccc(CNC(=O)c2cc3cc4ccc(C)cc4nc3o2)cc1 -8.73%
O=C(Cc1ccccc1)Nc1c(C(=O)c2ccccc2)oc2ccccc12 -9.95%
Cc1ccc(NC(=O)CSc2nnc(-c3nnn(-c4ccc(F)cc4)c3C)o2)cc1Br -13.5%
Cc1ccc(OCC(=O)Nc2nonc2-c2ccc(C)c(C)c2)cc1C -17.7%
Cc1ccc(NC(=O)CN2C(=O)COc3ccc(S(=O)(=O)N4CCCCCC4)cc32)cc1Cl -23.4%
COc1cccc(N2CCN(C(=O)c3cc4c(s3)-c3c(C)cccc3OC4)CC2)c1 -9.09%
CCCCn1c(=NC(=O)C(C)(C)Oc2ccc(Cl)cc2)c(C(=O)OCC)cc2c(=O)n3ccccc3nc21 -28.1%
O=C(Nc1ccc(OC(F)(F)F)cc1)C(Cc1ccccc1)NS(=O)(=O)c1cccc2nsnc12 (stereo unspecified) -16.5%
COc1ccccc1C(=O)Nc1cccc(C(=O)OCc2cc(=O)n3nc(C4CC4)sc3n2)c1 1.61%
Cc1ccc(C)c(CNC(=O)c2ccc3c(c2)nc2n3CCOC2)c1 -13.4%
CC(C)Cc1nn2c(=O)cc(COC(=O)CNC(=O)c3ccc(C(C)(C)C)cc3)nc2s1 -6.99%
CC1CCCN(CCCNC(=O)c2ccc3c(c2)N(Cc2cccc(Cl)c2)C(=O)c2ccccc2S3(=O)=O)C1 (stereo unspecified) -5.06%
Cc1ccc(S(=O)(=O)c2nnn3c2nc(NCc2ccc4c(c2)OCO4)c2sccc23)cc1 20.9%
CCOC(=O)c1c(Nc2ccc(O)cc2)nnc(-c2ccccc2)c1-c1ccccc1 -12.7%
COc1cccc(CNC(=O)Cn2ccc3cc(S(=O)(=O)N4CCCC4)ccc32)c1OC -8.08%
COC(=O)c1ccc(C2c3c(oc4ccc(C)cc4c3=O)C(=O)N2Cc2ccc3c(c2)OCO3)cc1 (stereo unspecified) -2.26%
CCN(CC)S(=O)(=O)c1ccc2c(c1)nc(CN(C)C(=O)Nc1ccc(F)cc1)n2C 16.6%
Cc1ccc(OCCCCn2cnc3ccccc32)cc1 -8.82%
Cc1ccc(C)c(CN2C(=O)c3ccccc3S(=O)(=O)c3ccc(C(=O)Nc4cc(F)ccc4F)cc32)c1 5.21%
COc1ccc(NC(=O)c2nnn(CC(=O)Nc3c(C)cc(C)cc3C)c2N)cc1OC -5.56%
Fc1ccc(Nc2nc(SCc3cccc(Cl)c3)nc3ccccc23)cc1 -10.9%
COc1ccc(CNC(=O)C(CCSC)NS(=O)(=O)c2ccc3c(c2)oc(=O)n3C)cc1 (stereo unspecified) -3.75%
COc1ccc(CNC(=O)CN(c2ccc(C)cc2)S(=O)(=O)c2c(C)noc2C)cc1 0.646%
O=C(Nc1ccc(C(=O)N2CCCCC2)cc1)c1nsc2ccccc12 -11.6%
COc1cc(Cl)c(C)cc1NC(=O)CCc1c(C)nc2c3cccnc3nn2c1C -7.75%
O=C(Nc1nc2n(n1)C(c1ccccc1)C=C(c1ccccc1)N2)c1ccccc1 (stereo unspecified) -11.5%
CS(=O)(=O)c1ccccc1-c1nnc(NC(=O)c2ccc3c(c2)OCCO3)o1 -5.37%
COc1ccc(CNC(=O)CSc2n[nH]c(-c3ccc(F)cc3)n2)cc1 3.05%
CCOc1ccc(-c2cc(NC(=O)c3cccc(Cl)c3)c(C(=O)OC)s2)cc1 -3.39%
Cc1cc(C)cc(NC(=O)CSc2nc3c([nH]c4ccccc43)c(=O)n2-c2ccc(F)cc2)c1 -15.6%
CNC(=O)C(=O)NCC(c1ccc2c(c1)OCO2)N1CCOCC1 (stereo unspecified) -33.5%
COc1ccc(CNC(=O)C2=C(C)C(=O)OC23CCCCC3)cc1OC -4.95%
O=C(c1ccc(F)cc1F)N1CCC(c2nc(-c3ccc(S(=O)(=O)N4CCCC4)cc3)no2)CC1 -9.78%
CC1=C(C(=O)Nc2ccccc2)C(c2ccc(C)cc2)n2nc(SCc3ccccc3C)nc2N1 (stereo unspecified) -8.72%
CCCOc1ccc(C(=O)Nc2nonc2-c2ccc(OCC)cc2)cc1 -10.8%
CCCc1ccc(S(=O)(=O)N2CCC(c3nnnn3-c3ccc(OC)cc3)CC2)cc1 -8.32%
Cc1oc2cc3oc(=O)c(CC(=O)N4CCCCC4)c(C)c3cc2c1C -11.7%
CCOC(=O)c1ccc(NC(=O)c2cn(-c3ccccc3)nc2-c2ccc(C)cc2)cc1 -18%
CN1CCOC(c2ccccc2)c2ccccc2C1 (stereo unspecified) -9.33%
CCCOc1ccc(CNC(=O)c2oc3ccc4c(c3c2C)C(=O)CC(C)(CC)O4)cc1 (stereo unspecified) -16.9%
CCOc1cc(C#N)c(NC(=O)c2ccc(OC)c(S(=O)(=O)N3CCN(c4ccccc4)CC3)c2)cc1OCC -10.3%
N#CC1=C2SCN(C3CCCCC3)CN2C(=O)CC1c1ccc(Br)cc1 (stereo unspecified) -9.52%
CCc1nnc2c(N3CCN(c4cccc(C(F)(F)F)c4)CC3)nc3ccccc3n12 -23%
CSc1nc(-c2ccccc2Cl)nc2c1Cc1c(CO)cnc(C)c1O2 -8.04%
COc1ccc(CNC(=O)Cn2c(=O)c3cccn3c3ccccc32)cc1 -6.37%
c1ccc(-c2cc3ncc4c(n3n2)-c2ccccc2OC4)cc1 -2.79%
COc1ccc(C2=C(C(C)=O)Sc3nnc(-c4ccc(Cl)cc4)n3N2C(C)=O)cc1OC -15.5%
CNc1ccc(-c2nc(-c3ccccc3C)no2)cc1[N+](=O)[O-] -11.2%
CN1CCN(CCCNC(=O)c2cnn(-c3ccc(F)cc3)c2-n2cccc2)CC1 -10.2%
O=C(Nc1c(C(=O)N2CCN(c3ccccc3F)CC2)oc2ccccc12)c1ccco1 -20.1%
COc1cccc(CNc2ncnc3onc(C)c23)c1 -39.6%
O=C(Cn1c(=O)n(Cc2ccco2)c(=O)c2oc3ccccc3c21)Nc1ccc(F)c(Cl)c1 -10.9%
COc1ccc(N(CC(=O)N2CCc3ccccc3C2)S(=O)(=O)c2ccc(C)cc2)cc1Cl -23%
CCCCNc1ccc(C(=O)OCCN(C)C)cc1 -24.1%
CCC(=O)N1CCc2cc(Br)cc(S(=O)(=O)N3CCC(C(=O)Nc4ccccc4F)CC3)c21 -11.9%
CCCCCOc1ccc(Cn2c(=O)oc3ccc(C)cc32)cc1OC -44.7%
CC(=O)N1CCc2cc(S(=O)(=O)NC(CC(C)C)C(=O)NCc3ccccc3Cl)ccc21 (stereo unspecified) -20.5%
CCOC(=O)CCC(=O)Nc1nnc2n1CCS2 -15.5%
O=c1c(NCc2ccccc2Cl)nccn1-c1ccccc1 4.16%
CC(=O)Nc1ccc(-c2nnc3n(Cc4ccc(C)cc4)c(=O)c4ccccc4n23)cc1 -15.1%
Cc1ccc(C(=O)Nc2nnc(S(=O)(=O)N3CCCCCC3)s2)cc1 -16.2%
COc1ccc(CNC(=O)CCc2c(C)c3cc4c(C)c(C)oc4cc3oc2=O)cc1 22.2%
O=C(Cn1ccn(-c2ccc(F)cc2)c(=O)c1=O)Nc1ccccc1C(F)(F)F -2.35%
CCCCc1nn2c(=O)cc(COC(=O)c3ccccc3NC(=O)c3cccs3)nc2s1 -18.1%
O=C(Nc1ccc(Cl)cc1Cl)c1cc(S(=O)(=O)N2CCCCCC2)ccc1F -14.1%
Cc1cc(C)cc(C(=O)n2nc(C)c(S(=O)(=O)N3CCCCCC3)c2C)c1 0.84%
Cc1c(C(=O)N2CCN(c3ccc(F)cc3)CC2)sc2nc3n(c(=O)c12)CCC3 -24.7%
O=C1CC(c2cc(F)cc(F)c2)c2cc3c(cc2N1)OCO3 (stereo unspecified) 0.477%
CCCCS(=O)(=O)c1oc(-c2cccs2)nc1S(=O)(=O)c1ccc(F)cc1 -24.8%
Cc1cccc(-n2c(N)cc(=O)nc2SCC(=O)Nc2ccc(F)cc2)c1C -13.8%
COc1ccc(Br)cc1C(=O)Nc1ccc(-c2nc3ncccc3o2)cc1C -11.2%
CC(C)Cn1c(C2CC(=O)N(c3ccccc3Cl)C2)nc2ccccc21 (stereo unspecified) -26.1%
Cc1cccc(NC(=O)Cn2nnc(C(=O)NCc3ccco3)c2N)c1 -3.48%
O=C(Cn1nc(-c2ccccc2)nc(Cc2ccccc2)c1=O)Nc1ccc(Cl)cc1 -11.4%
Cc1oc(-c2ccc(C(=O)NCCN(C)C)cc2)nc1CS(=O)(=O)c1ccccc1 0.743%
Cc1ccc(C(=O)NCC(=O)OCc2cc(=O)n3ccsc3n2)cc1 -6.47%
CCc1ccc(NC(=O)CSc2ccc3nc(-c4ccc(OC)cc4)cn3n2)cc1 -9.29%
COC(=O)CSc1nc2sc3c(c2c(=O)n1-c1ccc(C)cc1)CC(C(C)C)OC3 (stereo unspecified) -22%
CCN(CC)S(=O)(=O)c1ccc2c(c1)N(CC(=O)Nc1ccc(OC)cc1)C(=O)CS2 -12.6%
Cc1ccccc1CNC(=O)c1oc2c(c1C)-c1nn(Cc3ccc(Cl)cc3)cc1CC2 -12.3%
CCOc1ccc(Cl)cc1CNCCCSc1nnnn1C -10.9%
CCOc1ccc(NC(=O)C2CCCN(c3cnccn3)C2)cc1 (stereo unspecified) -2.74%
CCCCCOC(=O)Nc1nc(=O)n([C@@H]2O[C@H](C)[C@@H](O)[C@H]2O)cc1F -10.6%
